Some of the results follow. The main result of the screen is listed elsewhere. These columns were measured beside it and carry no call.

What all share (assay): Primary Screen for Target Class Profiling of Small Molecule Inhibitors of Methyltransferases
The target of assay [1] is Glycine N-methyltransferase (Homo sapiens) (UniProt Q14749). The conditions noted are these: purified enzyme, MTase-Glo SAH luminescence; measured here: GNMT inhibition; at 40 µM; stronger effect = lower value. The method in brief: (§1)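 Each enzyme was assayed with SAM and its substrate. SAH formation detected by MTase-Glo luminescence; single-point 40 uM screen[…].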

For assay [2], the target named is Guanidinoacetate N-methyltransferase (Homo sapiens) (UniProt Q14353). The settings on record: purified enzyme, MTase-Glo SAH luminescence; measured here: GAMT inhibition; at 40 µM; stronger effect = lower value. The gist of the method:
as §1

In assay [3] the target is Histamine N-methyltransferase (Homo sapiens) (UniProt P50135). The conditions noted are these: purified enzyme, MTase-Glo SAH luminescence; measured here: HNMT inhibition; at 40 µM; stronger effect = lower value. The method in brief: as §1
The target of assay [4] is Nicotinamide N-methyltransferase (Homo sapiens) (UniProt P40261). The conditions noted are these: purified enzyme, MTase-Glo SAH luminescence; measured here: NNMT inhibition; at 40 µM; stronger effect = lower value. The gist of the method: as §1
Assay [5] addresses Phenylethanolamine N-methyltransferase (Homo sapiens) (UniProt P11086). The conditions noted are these: purified enzyme, MTase-Glo SAH luminescence; measured here: PNMT inhibition; at 40 µM; stronger effect = lower value. The method in brief:
as §1
% is scaled to controls: 0 for no effect and ±100 for the full control effect.

Take `COc1ccc(-c2nnn3c2nc(NCc2ccccc2Cl)c2ccccc23)cc1`: the activity change, negative = inhibition in assay [1] came out at 2.24%; in assay [2], 5.62%; in assay [3], 7.63%; in assay [4], 1.53%; in assay [5], 1.9%.

In the case of `Cc1ccccc1N1Cc2c(NC3CCCCCC3)ncnc2N(C)CC1=O`, the activity change, negative = inhibition was -7.7% in assay [1]; -10.9% in assay [2]; -1.52% in assay [3]; -18.2% in assay [4]; -2.05% in assay [5].

In the case of `O=C1CCc2cc(OCCCCc3nnnn3C3CCCCC3)ccc2N1`, the activity change, negative = inhibition in assay [1] was -6.11%; in assay [2], 6.23%; in assay [3], 2.41%; in assay [4], -11.9%; in assay [5], 5.57%.

For `COC(=O)c1cc2n(n1)CC(C)(C(=O)NC1CCCCC1)N(c1ccc(Cl)cc1)C2=O` (stereo not given), the activity change, negative = inhibition is -0.707% in assay [1]; 3.84% in assay [2]; -0.141% in assay [3]; 4.82% in assay [4]; 2.69% in assay [5].

Regarding `CC(C)CNC(=O)c1ccc2c(=O)n(C(C)C)c3nn(Cc4ccc(F)cc4)c(=O)n3c2c1`, the activity change, negative = inhibition is -1.86% in assay [1]; 0% in assay [2]; 1.82% in assay [3]; 0.654% in assay [4]; 1.25% in assay [5].

Take `CC1(C(=O)NCc2ccccc2)Cn2c(cc3ccccc32)C(=O)N1Cc1ccc2c(c1)OCO2` (stereo not given): the activity change, negative = inhibition in assay [1] is -6%; in assay [2], -1.17%; in assay [3] it was 0.249%; in assay [4], -16.4%; in assay [5] it was -2.77%.

On to `COc1cccc(N2C(=O)NC(=NC3CCCC3)C23CCN(Cc2ccccc2)C3)c1` (stereo not given), for which the activity change, negative = inhibition is -12.2% in assay [1]; 0.163% in assay [2]; -1.29% in assay [3]; -10.9% in assay [4]; -0.783% in assay [5].

Take `N#C[C@@H]1C[C@@H]2C[C@@H]2N1C(=O)[C@@H](N)C12CC3CC(CC(O)(C3)C1)C2`: the activity change, negative = inhibition in assay [1] was -2.57%; in assay [2], -11.6%; in assay [3], 5.07%; in assay [4], -16.4%; in assay [5] it was -1.63%.

Regarding `CC(C)(O)C1OC1C1=CC(=O)C2(C)OC2C1O` (stereo not given), the activity change, negative = inhibition was 2.79% in assay [1]; 4.58% in assay [2]; 9.98% in assay [3]; -6.29% in assay [4]; 4.85% in assay [5].

In the case of `COc1ccccc1CNC(=O)C1(C)Cn2nc(-c3ccccc3)cc2C(=O)N1CCc1ccc(Cl)cc1` (stereo not given), the activity change, negative = inhibition in assay [1] is -7.53%; in assay [2], -0.582%; in assay [3] it was -6.67%; in assay [4], -8.79%; in assay [5], -4.78%.

With `CCCn1c(=O)c2ccc(C(=O)NC(C)CC)cc2n2c(SCC(=O)c3ccccc3)nnc12` (stereo not given), the activity change, negative = inhibition in assay [1] was 2%; in assay [2] it was 4.91%; in assay [3], 5.51%; in assay [4] it was -6.55%; in assay [5], 3.64%.

`CCc1cc2c(cc3n2CC(C)(C(=O)NC2CCCCC2)N(c2ccc(C)cc2C)C3=O)s1` (stereo not given): the activity change, negative = inhibition in assay [1] was 2%; in assay [2] it was 0%; in assay [3], 9.63%; in assay [4] it was 12.5%; in assay [5], 3.24%.

Consider `CCOc1ccc(-c2cc3n(n2)CC(C)(C(=O)NC2CCCCC2)N(C2CCCCC2)C3=O)cc1` (stereo not given), for which the activity change, negative = inhibition was -3.99% in assay [1]; 4.43% in assay [2]; 2.13% in assay [3]; -1.67% in assay [4]; -1.72% in assay [5].

Consider `Cc1ccc(O)cc1Nc1ccnc(Nc2cccc(C(N)=O)c2)n1`, for which the activity change, negative = inhibition is -16.8% in assay [1]; -25.3% in assay [2]; -18.7% in assay [3]; -38.7% in assay [4]; -11.8% in assay [5].

For `Cc1cccc(C#Cc2cc(F)cc(C#N)c2)n1`, the activity change, negative = inhibition in assay [1] is -12.8%; in assay [2] it was -7.81%; in assay [3], -3.27%; in assay [4] it was -21.7%; in assay [5], -5.3%.

For the molecule `O=P(O)(O)C(Cl)(Cl)P(=O)(O)O`, the activity change, negative = inhibition in assay [1] was -7.33%; in assay [2] it was 6.59%; in assay [3], -0.99%; in assay [4], -2.78%; in assay [5] it was 7.07%.

On to `C[C@@H]1O[C@@H](O[C@H]2[C@H](OC(=O)[C@]34CCC(C)(C)C[C@H]3C3=CCC5[C@@]6(C)CC[C@H](O[C@@H]7O[C@H](CO[C@@H]8OC[C@H](O)[C@H](O)[C@H]8O)[C@@H](O)[C@H](O)[C@H]7O)C(C)(C)C6CC[C@@]5(C)[C@]3(C)C[C@H]4O)OC[C@@H](O)[C@@H]2O)[C@H](O)[C@H](O)[C@H]1O[C@@H]1OC[C@H](O)[C@H](O[C@@H]2OC[C@@H](O)[C@H](O)[C@H]2O)[C@H]1O` (stereo not given in full), for which the activity change, negative = inhibition turned out to be 0% in assay [1]; 12.9% in assay [2]; 2.5% in assay [3]; 3.73% in assay [4]; 8.91% in assay [5].

For the molecule `COc1cc(NC(=O)CSc2nnc3n(CCC(C)C)c(=O)c4ccccc4n23)cc(OC)c1`, the activity change, negative = inhibition in assay [1] was -2.06%; in assay [2] it was 0.088%; in assay [3] it was 4.11%; in assay [4] it was -1.05%; in assay [5], 0.921%.

For the molecule `O=C(NCc1ccc2c(c1)OCO2)c1ccc2c(=O)[nH]c3c(C(=O)NCC4CCCO4)sc(=S)n3c2c1` (stereo not given), the activity change, negative = inhibition in assay [1] is -4.88%; in assay [2] it was 0.08%; in assay [3], 12.1%; in assay [4], -9.99%; in assay [5] it was -11.1%.

With `OC[C@H]1O[C@@H](OC(CCCCc2ccc(O)cc2)CCc2ccc(O)cc2)[C@H](O[C@@H]2OC[C@](O)(CO)[C@H]2O)[C@@H](O)[C@@H]1O` (stereo not given in full), the activity change, negative = inhibition in assay [1] was 0%; in assay [2], 7.94%; in assay [3], 5.16%; in assay [4], -6.1%; in assay [5] it was 5.6%.

Take `CCC(C(=O)N1CCC2(CCC(=O)N(Cc3ccccn3)C2)CC1)n1cccn1` (stereo not given): the activity change, negative = inhibition in assay [1] was -2.54%; in assay [2] it was -4.59%; in assay [3] it was -1.64%; in assay [4] it was -6.18%; in assay [5] it was -19.4%.

As to `COc1ccccc1CN1C(=O)c2cc3occc3n2CC1(C)C(=O)NC1CCCCC1` (stereo not given), the activity change, negative = inhibition in assay [1] was found to be 2.93%; in assay [2], 4.35%; in assay [3], 6.95%; in assay [4], 10.9%; in assay [5], 4.4%.

On to `C=C(C)C1Cc2cc(C(=O)OC3OC(CO)C(O)C(O)C3O)ccc2O1` (stereo not given), for which the activity change, negative = inhibition in assay [1] was 0%; in assay [2], -4.09%; in assay [3], 6.73%; in assay [4] it was -18.5%; in assay [5] it was -12.8%.

On to `Cc1ccc(-c2cc(O)c3c(c2)CNCCO3)cc1`, for which the activity change, negative = inhibition in assay [1] was -6.33%; in assay [2], -4.78%; in assay [3] it was -6.19%; in assay [4] it was -7.4%; in assay [5] it was -2.11%.

In the case of `CC1(C(=O)NC2CCCCC2)Cn2c(cc3ccccc32)C(=O)N1Cc1ccc(F)cc1` (stereo not given), the activity change, negative = inhibition in assay [1] is 5.55%; in assay [2], 5.58%; in assay [3], -0.735%; in assay [4], 4.22%; in assay [5], -1.12%.

As for `O=C(CCc1nc2ccccc2s1)N1CCC(c2noc(C3CC3)n2)C1` (stereo not given), the activity change, negative = inhibition is -5.06% in assay [1]; -2.61% in assay [2]; -1.86% in assay [3]; -13.5% in assay [4]; -4.33% in assay [5].

Turning to `COCC(=O)NC1CCC12CCN(Cc1ccc(C)o1)CC2` (stereo not given), the activity change, negative = inhibition in assay [1] was -5.06%; in assay [2] it was -4.85%; in assay [3], -0.046%; in assay [4], -4.91%; in assay [5], -2.98%.

With `CC1(O)CC(O)C2(O)C=COC(O[C@@H]3O[C@H](CO)[C@@H](O)[C@H](O)[C@H]3O)C12` (stereo not given in full), the activity change, negative = inhibition in assay [1] is -4.72%; in assay [2] it was 1.74%; in assay [3], 3.43%; in assay [4], -9.55%; in assay [5], -16.1%.

`C/C=C/C(=O)OC1/C=C/C(O)C(OC(C)=O)CCC(=O)OC1C` (stereo not given): the activity change, negative = inhibition in assay [1] is 3.88%; in assay [2] it was 6.96%; in assay [3] it was 10.1%; in assay [4] it was -7.12%; in assay [5], 2.21%.

`CCc1noc(-c2cn(C3CCCN(C(=O)c4ccc(C(C)(C)C)cc4)C3)nn2)n1` (stereo not given): the activity change, negative = inhibition in assay [1] is -6.61%; in assay [2] it was -5.89%; in assay [3], -2.88%; in assay [4], -18%; in assay [5], -2.81%.

Regarding `COc1ccccc1OCc1cc(C(=O)N2CCCCCCCC2)n[nH]1`, the activity change, negative = inhibition in assay [1] was -8.19%; in assay [2], -6.65%; in assay [3] it was -3.01%; in assay [4] it was -10.8%; in assay [5] it was 5.85%.

Turning to `CCC(C)NC(=O)c1ccc2c(=O)n(C3CC3)c3nn(CC(=O)Nc4ccccc4)c(=O)n3c2c1` (stereo not given), the activity change, negative = inhibition in assay [1] was 4.31%; in assay [2], 0%; in assay [3], 10.9%; in assay [4], -2.3%; in assay [5] it was 5.03%.

With `CCN1CCN(CCNC(=O)c2cc3n(n2)CC(C)(C(=O)NCCC(C)C)N(C)C3=O)CC1` (stereo not given), the activity change, negative = inhibition in assay [1] is -0.216%; in assay [2] it was 5.44%; in assay [3], -6.92%; in assay [4] it was 2.23%; in assay [5], -1.74%.

Take `COc1cc(OC)cc(-c2cc3cnc(N)nc3nc2NC(=O)NC(C)(C)C)c1`: the activity change, negative = inhibition in assay [1] is -4.71%; in assay [2] it was 5.35%; in assay [3], 0.076%; in assay [4], -8.76%; in assay [5], 2.91%.

As for `Cc1ccc(C2c3cccn3-c3sc4c(c3CN2C(=O)NCc2ccccc2)CCCC4)cc1` (stereo not given), the activity change, negative = inhibition in assay [1] was -7.4%; in assay [2] it was 1.34%; in assay [3] it was 5.53%; in assay [4], 0.2%; in assay [5], 1.27%.

Turning to `C[C@]12CC[C@@H]3c4ccc(O)cc4C[C@@H](CCCCCCCCCS(=O)CCCC(F)(F)C(F)(F)F)[C@H]3[C@@H]1CC[C@@H]2O` (stereo not given in full), the activity change, negative = inhibition in assay [1] is -14%; in assay [2], 12.2%; in assay [3], 1.61%; in assay [4], -9.65%; in assay [5] it was 5.28%.

(Values after PubChem BioAssay AID1745853 (National Center for Advancing Translational Sciences (NCATS), 2022).)
